In PubChem BioAssay AID588453 (National Center for Advancing Translational Sciences (NCATS), 2011):
Among all 390,000 compounds or so, about 4,000 (1%) were called active. Inconclusive results, whose numbers are uncertain, are shown with a selection of clear calls. The call rests on the fitted dose curve; in most records, active means well fitted inhibition curve with a large enough effect; inconclusive means small, poorly fitted or top-dose-only effect; inactive means no such curve, though single readings can be large or run the other way. A potency beside an inconclusive call is a rough fit, not a confirmed value.

Each compound was assayed against Thioredoxin reductase 1, cytoplasmic (Rattus norvegicus) (UniProt O89049) (assay: qHTS Assay for Inhibitors of Mammalian Selenoprotein Thioredoxin Reductase 1 (TrxR1): qHTS). Settings: recombinant rTrxR1, NADPH fluorescence consumption, selenite substrate; series mostly up to 114 µM.
Outline: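 Rat TrxR1 (90 nM in the dispensed reagent) was pre-reduced with 400 uM NADPH for 5 min at room temperature, then incubated with compound for 15 min. After 400 uM selenite was added, NADPH fluorescence (Ex 340/Em 450 nm) was followed for 8 min.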
Further: nearly all actives have a fitted effect of over 65% in size.
Potency means the concentration at half of the fitted maximal effect; tags describe the fitted curve by direction and shape.

Sequence of UniProt O89049 (O89049 whole entry, looked up): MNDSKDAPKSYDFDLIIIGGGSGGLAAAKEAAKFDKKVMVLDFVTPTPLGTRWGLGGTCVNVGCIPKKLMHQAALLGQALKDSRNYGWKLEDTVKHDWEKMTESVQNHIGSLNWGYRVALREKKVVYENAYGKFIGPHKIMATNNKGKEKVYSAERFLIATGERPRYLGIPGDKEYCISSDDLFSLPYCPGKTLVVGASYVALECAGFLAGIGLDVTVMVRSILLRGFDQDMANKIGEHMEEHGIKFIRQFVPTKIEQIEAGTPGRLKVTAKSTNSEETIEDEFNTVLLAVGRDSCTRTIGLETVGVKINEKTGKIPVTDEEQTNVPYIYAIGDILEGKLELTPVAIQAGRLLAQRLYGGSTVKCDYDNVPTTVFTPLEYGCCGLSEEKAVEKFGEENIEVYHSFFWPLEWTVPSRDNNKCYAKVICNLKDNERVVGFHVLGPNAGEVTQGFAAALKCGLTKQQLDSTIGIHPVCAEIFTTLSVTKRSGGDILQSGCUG

SMILES	Potency
N#CC(C#N)=C1C=CC=CN1/C(=C\c1ccco1)C(=O)c1ccc(-c2ccccc2)cc1	active: 7.08 µM
CCc1ccc(C(=O)c2cn(CC(=O)Nc3ccc(OC)cc3OC)c3ccc(CC)cc3c2=O)cc1	inconclusive: 89.1 µM [inhibitor, single point]
CCCCCCn1c(SCCCC)nc2c1c(=O)[nH]c(=O)n2C	inactive
Cc1nc2nc(SCC(=O)NCc3ccco3)nn2c(C)c1Cc1ccccc1	inconclusive: 56.2 µM [inhibitor, partial curve, poor fit]
Oc1c(CN2CCOCC2)cc(CN2CCOCC2)c(O)c1O	inactive
CC1=Nc2cc(C(=O)O)ccc2Sc2ccc(Br)cc21	inactive
COc1ccccc1-c1noc(-c2ccco2)n1	inactive
Brc1ccc(CSc2nnc(Cc3c[nH]c4ccccc34)o2)cc1	inconclusive: 89.1 µM [inhibitor, partial curve, poor fit]
O=C(CSc1n[nH]c(-c2ccccc2F)n1)Nc1cc(F)ccc1F	inactive
COc1cc(C(=O)Sc2ccc(Cl)cc2)cc(OC)c1OC	inconclusive: 20 µM [inhibitor, single point]
CCOc1ccccc1-c1c2cc(O)c(=O)cc-2oc2cc(O)c(O)cc12	inconclusive: 70.8 µM [inhibitor, single point]
COc1ccc(C(C)C)cc1S(=O)(=O)NCCc1c(C)[nH]c2ccc(C)cc12	inactive
COC(=O)c1cc(NC(=O)c2cc(C)oc2C)cc(C(=O)OC)c1	inconclusive: 56.2 µM [inhibitor, partial curve, poor fit]
Cc1coc2c(C)c3oc(=O)c(CCC(=O)NCCc4ccc(Cl)cc4)c(C)c3cc12	inactive
CC1CC1C(=O)Nc1nc(-c2ccccn2)cs1 (stereo unspecified)	inactive
COc1cc(C(=O)Nc2ccc3nc(SCc4ccccc4)sc3c2)cc(OC)c1OC	inactive
COc1cc(Cl)c(S(=O)(=O)N2CCCC2)cc1Cl	inactive
COc1ccc(OC)c(S(=O)(=O)Nc2ccc(O)c(Sc3ncn[nH]3)c2)c1	inconclusive: 11.2 µM [inhibitor, partial curve, poor fit]
CC(=O)Nc1ccc(CCc2nc3ccccc3[nH]2)cc1	inactive
CCCNC(=O)c1noc2c1CCc1cc(OC)ccc1-2	inconclusive: 79.4 µM [inhibitor, single point]
C=CCn1c(O)c(N=NC(=O)CNC(=O)/C=C/c2ccco2)c2ccccc21	active: 14.1 µM
Cc1cc(C)c2nc(-c3ccco3)cc(C(=O)O)c2c1	inconclusive: 4.47 µM [inhibitor, full curve]
COc1ccc(C2=NNC(=O)C2(C)Br)cc1 (stereo unspecified)	inconclusive: 89.1 µM [inhibitor, single point]

SMILES	Potency
COCCCNC(=O)CC(c1cc(OC)c(OC)c(OC)c1)N1Cc2ccccc2C1=O (stereo unspecified)	inactive
CCCS(=O)(=O)c1nc(S(=O)(=O)c2ccc(C)cc2)c(N2CCc3ccccc3C2)s1	inconclusive: 20 µM [inhibitor, partial curve, poor fit]
COc1ccc(C)cc1NS(=O)(=O)c1ccc2c(c1)[C@H]1C=CC[C@H]1[C@@H](c1cccc(Cl)c1)N2	inconclusive: 70.8 µM [inhibitor, partial curve]
COc1ccc(S(=O)(=O)N2CCN(c3nc(-c4ccccc4)nc4ccccc34)CC2)cc1	inactive
CC1=C(C(=O)Nc2cc(C(=O)N3CCN(c4cccc(C)c4C)CC3)ccc2C)SCCO1	inconclusive: 89.1 µM [inhibitor, single point]
CCc1nnc(NC(=O)CCS(=O)(=O)c2ccc(C)cc2)s1	inconclusive: 20 µM [inhibitor, partial curve, poor fit]
CCOCCCN1CN(Cc2ccccc2)CNC1=S	inactive
CCOC(=O)C1CCN(Cc2coc3c(Cl)cc(Cl)cc3c2=O)CC1	inconclusive: 3.16 µM [inhibitor, partial curve]
Cc1ccc(C2C(C(=O)c3cc4ccccc4o3)=C(O)C(=O)N2CCN(C)C)o1 (stereo unspecified)	inconclusive: 79.4 µM [inhibitor, partial curve]
CCCN1CNC(=S)N(c2cc(C)ccc2C)C1	inconclusive: 4.47 µM [inhibitor, full curve, poor fit]
CC(=O)c1cccc(NC(=O)N2CCCC2C(=O)Nc2cc(C)ccc2C)c1 (stereo unspecified)	inconclusive: 28.2 µM [inhibitor, single point]
O=Cc1cccn1-c1nccc(-c2ccco2)n1	inconclusive: 79.4 µM [inhibitor, single point]
Cc1c(F)cccc1NC(=O)C1CCCN1S(=O)(=O)c1ccc(F)cc1 (stereo unspecified)	inactive
CN(CCO)c1ccc(C=NNc2ccc([N+](=O)[O-])cc2S(=O)(=O)Nc2ccccc2C(=O)O)cc1	inactive
NC(=O)c1c(Nc2nc3c(F)cccc3s2)sc2c1CCCC2	inconclusive: 89.1 µM [inhibitor, single point]
COc1ccc(-c2nnc3ccc(SCC(=O)NCc4ccco4)nn23)cc1OC	inconclusive: 70.8 µM [inhibitor, single point]
Cn1cc(Br)c(C(=O)NC(=S)Nc2ccc(S(N)(=O)=O)cc2)n1	inconclusive: 31.6 µM [inhibitor, single point]
CC(C)COc1cccc(C(=O)NC2(C)CCS(=O)(=O)C2)c1 (stereo unspecified)	inconclusive: 89.1 µM [inhibitor, single point]
COc1ccc(CN(C(=O)c2ccc(-c3ccccc3)[nH]2)C(C(=O)NC(C)(C)C)c2ccncc2)cc1 (stereo unspecified)	inconclusive: 39.8 µM [inhibitor, partial curve]
O=C(NCc1ccco1)c1cccc(S(=O)(=O)N2CCOCC2)c1	inconclusive: 25.1 µM [inhibitor, partial curve, poor fit]
O=C(c1ccc2c(c1)OCO2)c1cn(Cc2ccc(F)cc2)c2ccccc2c1=O	inactive
CN(C)c1ccc(N=Nc2ccccc2C(=O)OCC(=O)N(C)c2ccccc2)cc1	inactive
O=C(CS(=O)(=O)c1cn(CC(=O)N2CCCC2)c2ccccc12)Nc1ccccc1	inconclusive: 56.2 µM [inhibitor, single point]
